GI50 data for 21 compounds are collected here from US9199944B2 (priority 2012, dated 2015).

Holding throughout (experiment): cells
The subject of experiment [1] is H1993 (lung cancer cells). The following applies: Homo sapiens, NCI-H1993, 72 h, read-out: H1993CP GI50 (μM).
Experiment [2] has as its system Hs746T (stomach cancer cells). The following applies: Homo sapiens, 72 h, read-out: Hs746TCP GI50 (μM).
Experiment [3] has as its system H2228 (lung cancer cells). The note with it: Homo sapiens, NCI-H2228, 72 h, read-out: H2228CP GI50 (μM).
The test system of experiment [4] is H3122 (lung cancer cells). The note with it: Homo sapiens, NCI-H3122, 72 h, read-out: H3122CP GI50 (μM).

As a reminder, the GI50 is the concentration at which growth is held to half of that of the control.

For `CCOc1cc(N2CCN(C(C)=O)CC2)ccc1Nc1nc(Nc2ccc(N3CCN(C(C)=O)CC3)cc2OC)ncc1F` [Example 29, 1-(4-(4-(4-(4-(4-acetylpiperazin-1-yl)-2-ethoxyphenylamino)-5-fluoropyrimidin-2-ylamino)-3-methoxyphenyl)piperazin-1-yl)ethanone], the GI50 was 9.85 µM in experiment [1], over 10 µM in experiment [2], 0.411 µM in experiment [3] and 0.347 µM in experiment [4].

Turning to `COc1cc(N2CCN(C(=O)OC(C)(C)C)CC2)ccc1Nc1ncc(C(F)(F)F)c(Nc2ccc(N3CCN(C(C)=O)CC3)cc2OC)n1` [Example 62, tert-butyl-4-(4-((4-((4-(4-acetylpiperazin-1-yl)-2-methoxyphenyl)amino)-5-(trifluoromethyl)pyrimidin-2-yl)amino)-3-methoxyphenyl)piperazin-1-carboxylate], the GI50 in experiment [1] was found to be 2.46 µM; in experiment [2] it was 2.19 µM; in experiment [3], 0.72 µM; in experiment [4], 0.22 µM.

Regarding `COc1cc(N2CCN(C(C)=O)CC2)ccc1Nc1ncc(F)c(Nc2ccc(N3CCN(C)CC3)cc2OC)n1` [Example 30, 1-(4-(4-(5-fluoro-4-(2-methoxy-4-(4-methylpiperazin-1-yl)phenylamino)pyrimidin-2-ylamino)-3-methoxyphenyl)piperazin-1-yl)ethanone], the GI50 in experiment [1] was 7.81 µM; in experiment [2], over 10 µM; in experiment [3] it was 0.224 µM; in experiment [4] it was 0.017 µM.

For the compound `CCC(=O)N1CCN(c2ccc(Nc3nc(Nc4ccc(N5CCN(C(C)=O)CC5)cc4OC)ncc3Cl)c(OC)c2)CC1` [Example 22, 1-(4-(4-(2-(4-(4-acetylpiperazin-1-yl)-2-methoxyphenylamino)-5-chloropyrimidin-4-ylamino)-3-methoxyphenyl)piperazin-1-yl)propan-1-one], the GI50 in experiment [1] was 9.91 µM; in experiment [2], 3.42 µM; in experiment [3], 0.174 µM; in experiment [4], 0.126 µM.

With `COc1cc(N2CCN(C(C)=O)CC2)ccc1Nc1ncc(F)c(Nc2ccc(N3CCNCC3)cc2OC)n1` [Example 25, 1-(4-(4-(5-fluoro-4-(2-methoxy-4-(piperazin-1-yl)phenylamino)pyrimidin-2-ylamino)-3-methoxyphenyl)piperazin-1-yl)ethanone], the GI50 was 1.08 µM in experiment [1], over 10 µM in experiment [2], 0.148 µM in experiment [3] and 0.022 µM in experiment [4].

On to `COc1cc(N2CCN(S(C)(=O)=O)CC2)ccc1Nc1ncc(Cl)c(Nc2ccc(N3CCN(S(C)(=O)=O)CC3)cc2OC)n1` [Example 79], for which the GI50 was over 10 µM in experiment [1], 8.11 µM in experiment [2], 0.29 µM in experiment [3] and 0.3 µM in experiment [4].

Regarding `COc1cc(N2CCN(C(C)=O)CC2)ccc1Nc1ncc(C(F)(F)F)c(Nc2ccc(N3CCN(C(=O)CO)CC3)cc2OC)n1` [Example 58, 1-(4-(4-((2-((4-(4-acetylpiperazin-1-yl)-2-methoxyphenyl)amino)-5-(trifluoromethyl)pyrimidin-4-yl)amino)-3-methoxyphenyl)piperazin-1-yl)-2-hydroxyethanone], the GI50 was 8.26 µM in experiment [1], 1.86 µM in experiment [2], 0.143 µM in experiment [3] and 0.0014 µM in experiment [4].

Regarding `CCOc1cc(N2CCN(C(C)=O)CC2)ccc1Nc1nc(Nc2ccc(N3CCN(C(C)=O)CC3)cc2OC)ncc1Cl` [Example 1, 1-(4-(4-(4-(4-(4-acetylpiperazin-1-yl)-2-ethoxyphenylamino)-5-chloropyrimidin-2-ylamino)-3-methoxyphenyl)piperazin-1-yl)ethanone], the GI50 in experiment [1] was determined as 6.91 µM; in experiment [2], 3.43 µM; in experiment [3], 1.59 µM; in experiment [4], 0.96 µM.

`COc1cc(N2CCN(C(C)=O)CC2)ccc1Nc1ncc(Cl)c(Nc2ccc(N3CCN(S(C)(=O)=O)CC3)cc2OC)n1` [Example 13, 1-(4-(4-(5-chloro-4-(2-methoxy-4-(4-(methylsulfonyl)piperazin-1-yl)phenylamino)pyrimidin-2-ylamino)-3-methoxyphenyl)piperazin-1-yl)ethanone]: the GI50 in experiment [1] was 2.48 µM; in experiment [2], 3.62 µM; in experiment [3], 0.126 µM; in experiment [4], 0.218 µM.

Regarding `CC(=O)N1CCN(c2ccc(Nc3ncc(C(F)(F)F)c(Nc4ccc(N5CCN(C(C)=O)CC5)cc4OC(F)F)n3)c(OC(F)F)c2)CC1` [Example 73], the 50% growth inhibitory concentration (GI50) in experiment [1] is 7.92 µM; in experiment [2], 0.37 µM; in experiment [3], 8.09 µM; in experiment [4], 0.941 µM.

For the compound `COc1cc(N2CCN(C(C)=O)CC2)ccc1Nc1ncc(F)c(Nc2ccc(N3CCN(C)CC3)cc2OC(F)F)n1` [Example 38, 1-(4-(4-(4-(2-(difluoromethoxy)-4-(4-methylpiperazin-1-yl)phenylamino)-5-fluoropyrimidin-2-ylamino)-3-methoxyphenyl)piperazin-1-yl)ethanone], the GI50 in experiment [1] was over 10 µM; in experiment [2], 7.84 µM; in experiment [3] it was 1.28 µM; in experiment [4], 0.0091 µM.

Regarding `COc1cc(N2CCN(C(C)=O)CC2)ccc1Nc1ncc(F)c(Nc2ccc(N3CCN(S(C)(=O)=O)CC3)cc2OC)n1` [Example 26, 1-(4-(4-(5-fluoro-4-(2-methoxy-4-(4-(methylsulfonyl)piperazin-1-yl)phenylamino)pyrimidin-2-ylamino)-3-methoxyphenyl)piperazin-1-yl)ethanone], the GI50 in experiment [1] is 3.38 µM; in experiment [2], over 10 µM; in experiment [3] it was 0.406 µM; in experiment [4], 0.029 µM.

`COc1cc(N2CCN(C(C)=O)CC2)ccc1Nc1ncc(F)c(Nc2ccc(N3CCN(C(=O)CO)CC3)cc2OC)n1` [Example 36, 1-(4-(4-(2-(4-(4-acetylpiperazin-1-yl)-2-methoxyphenylamino)-5-fluoropyrimidin-4-ylamino)-3-methoxyphenyl)piperazin-1-yl)-2-hydroxyethanone]: the GI50 in experiment [1] is over 10 µM; in experiment [2] it was 6.49 µM; in experiment [3] it was 1.14 µM; in experiment [4] it was 0.014 µM.

Turning to `CCNC(=O)N1CCN(c2ccc(Nc3ncc(C(F)(F)F)c(Nc4ccc(N5CCN(C(C)=O)CC5)cc4OC)n3)c(OC)c2)CC1` [Example 64, 4-(4-((4-((4-(4-acetylpiperazin-1-yl)-2-methoxyphenyl)amino)-5-(trifluoromethyl)pyrimidin-2-yl)amino)-3-methoxyphenyl)-N-ethylpiperazin-1-carboxyamide], the GI50 in experiment [1] stood at 5.47 µM; in experiment [2] it was 2.14 µM; in experiment [3], 0.38 µM; in experiment [4] it was 0.018 µM.

With `COc1cc(N2CCN(C(C)=O)CC2)ccc1Nc1nc(Nc2ccc(N3CCN(C(C)=O)CC3)cc2)ncc1F` [Example 24, 1-(4-(4-(4-(4-(4-acetylpiperazin-1-yl)-2-methoxyphenylamino)-5-fluoropyrimidin-2-ylamino)phenyl)piperazin-1-yl)ethanone], the GI50 in experiment [1] was 13.1 µM; in experiment [2], 1.86 µM; in experiment [3], 0.932 µM; in experiment [4], 0.734 µM.

For `COC(=O)N1CCN(c2ccc(Nc3nc(Nc4ccc(N5CCN(C(C)=O)CC5)cc4OC)ncc3F)c(OC(F)F)c2)CC1` [Example 41, methyl 4-(4-(2-(4-(4-acetylpiperazin-1-yl)-2-methoxyphenylamino)-5-fluoropyrimidin-4-ylamino)-3-(difluoromethoxy)phenyl)piperazin-1-carboxylate], the GI50 was 9.88 µM in experiment [1], 6.14 µM in experiment [2], 0.78 µM in experiment [3] and 0.306 µM in experiment [4].

With `CCCOc1cc(N2CCN(C(C)=O)CC2)ccc1Nc1nc(Nc2ccc(N3CCN(C(C)=O)CC3)cc2)ncc1Cl` [Example 4, 1-(4-(4-(4-(4-(4-acetylpiperazin-1-yl)-2-propoxyphenylamino)-5-chloropyrimidin-2-ylamino)phenyl)piperazin-1-yl)ethanone], the GI50 in experiment [1] stood at 3.47 µM; in experiment [2] it was 1.38 µM; in experiment [3], 0.32 µM; in experiment [4] it was 0.19 µM.

Turning to `CCNC(=O)N1CCN(c2ccc(Nc3nc(Nc4ccc(N5CCN(C(C)=O)CC5)cc4OC)ncc3F)c(OC)c2)CC1` [Example 31, 4-(4-(2-(4-(4-acetylpiperazin-1-yl)-2-methoxyphenylamino)-5-fluoropyrimidin-4-ylamino)-3-methoxyphenyl)-N-ethylpiperazin-1-carboxyamide], the GI50 in experiment [1] is 3.68 µM; in experiment [2] it was over 10 µM; in experiment [3], 0.492 µM; in experiment [4] it was 0.196 µM.

Turning to `COc1cc(N2CCN(C(C)=O)CC2)ccc1Nc1ncc(Cl)c(Nc2ccc(N3CCN(C(=O)CO)CC3)cc2OC)n1` [Example 14, 1-(4-(4-(2-(4-(4-acetylpiperazin-1-yl)-2-methoxyphenylamino)-5-chloropyrimidin-4-ylamino)-3-methoxyphenyl)piperazin-1-yl)-2-hydroxyethanone], the GI50 in experiment [1] was 7.44 µM; in experiment [2], 3.42 µM; in experiment [3] it was 0.093 µM; in experiment [4], 0.012 µM.

As for `COc1cc(N2CCN(C(C)=O)CC2)ccc1Nc1ncc(Cl)c(Nc2ccc(N3CCN(C(C)=O)CC3)cc2)n1` [Example 8, 1-(4-(4-(2-(4-(4-acetylpiperazin-1-yl)-2-methoxyphenylamino)-5-chloropyrimidin-4-ylamino)phenyl)piperazin-1-yl)ethanone], the GI50 in experiment [1] stood at 9.14 µM; in experiment [2], 2.88 µM; in experiment [3] it was 2.06 µM; in experiment [4], 0.81 µM.

With `CC(=O)N1CCN(c2ccc(Nc3ncc(Cl)c(Nc4ccc(N5CCN(C(C)=O)CC5)cc4)n3)cc2)CC1` [Example 9, 1,1′-(4,4′-(4,4′-(5-chloropyrimidin-2,4-diyl)bis(azanediyl)bis(4,1-phenylene))bis(piperazin-4,1-diyl))diethanone], the GI50 in experiment [1] amounted to 2.14 µM; in experiment [2] it was 1.46 µM; in experiment [3] it was 1.39 µM; in experiment [4] it was 0.91 µM.
